{"sequences": {"note": "Chains of the proteins cited; added tags and fusions are not shown. Lines headed by an entry give the natural chain unless they say otherwise; changes in a name come on top.", "UniProt P0CX44": "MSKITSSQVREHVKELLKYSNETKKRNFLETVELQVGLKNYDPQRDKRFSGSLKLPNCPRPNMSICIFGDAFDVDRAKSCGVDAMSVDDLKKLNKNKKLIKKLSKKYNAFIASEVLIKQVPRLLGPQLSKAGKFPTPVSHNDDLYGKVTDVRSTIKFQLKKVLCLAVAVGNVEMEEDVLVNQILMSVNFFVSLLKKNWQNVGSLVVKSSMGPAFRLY", "UniProt Q12522": "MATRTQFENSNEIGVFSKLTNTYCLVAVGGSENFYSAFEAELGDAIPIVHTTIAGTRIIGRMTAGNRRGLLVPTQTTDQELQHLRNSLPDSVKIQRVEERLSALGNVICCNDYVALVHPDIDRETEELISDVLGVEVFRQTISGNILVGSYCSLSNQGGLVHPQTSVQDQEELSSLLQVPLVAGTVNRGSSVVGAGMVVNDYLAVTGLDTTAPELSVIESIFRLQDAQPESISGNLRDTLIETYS", "UniProt P14120": "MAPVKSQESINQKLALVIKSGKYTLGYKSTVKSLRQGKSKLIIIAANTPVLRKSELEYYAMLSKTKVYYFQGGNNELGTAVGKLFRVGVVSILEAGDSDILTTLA"}, "source": "paper PMC13034042", "binders": {"B1": {"name": "Bcl1.N325, Y2H fusion (domain or fragment, UniProt P53962 1-325)", "chain": "MASYSLVESNSFGSENWCLKLQPSYKHGLLTGLSNGEIRLLDWSTGKSVQKIKASETAINDMKVIGSDFSAGHLVSSASIDAVKVFDIRTNDRIAQIQNEANSPFISLDSRHGLLACGTELQGIDAAVYIYDIRKWDTPLRSLIDSHHDDVTCIKFHPSDVNILLSGSTDGYTNIYDLKQDEEEDALHQVINYASIHSCGWLSPKRIFTLSHMETFAIHELNDKSDELKEPQPLDFGDVREIWNCDYVVDIYPGLIATGKTQENCGELCLLPFKDEKVDTENGIVIPHAHGDEVVRDIFIPAQHSNMLYSCGEDGCVKIWENKQG"}, "B2": {"name": "Reh1.N62, Y2H fusion (domain or fragment, UniProt Q06709 1-62)", "chain": "MSSTFFTCNCCVIQFKTSDLQRYHMKTEWHRYNLKRRIANLPPIGAEQFAEKLQISEKEQAE"}, "B3": {"name": "Rei1.N66, Y2H fusion (domain or fragment, UniProt P38344 1-66)", "chain": "MSSSGVYTCNSCVLTFDSSDEQRAHMKSDWHRYNLKRRVAQLPPISFETFDSKVSAAAASTSKSAE"}, "B4": {"name": "Acl1 Y47A variant, Y2H fusion (protein, UniProt P25631 1-222)", "chain": "MNANIWVAASDGNLDRVEHILRESKGAMTPQSKDINGYTPMHAAAAAGHLDLLKKMCNEYNGDINVLDNDGDTPLHHVEDVATARLIVEELGGDFTIRNVEGQTPYDSFVENGEDGELIEYMRIKSGVADVHGVDGVQGEGVIDSKLLEEFKDNVRYTLENDPEEGADEATLQRRRQLEQIITGDNAEEELERYIRAMVREQMLGQGSMAGSGDEPDSKRRK"}, "B5": {"name": "Acl1 D72A variant, Y2H fusion (protein, UniProt P25631 1-222)", "chain": "B4 chain with A47Y, D72A"}, "B6": {"name": "Acl1 D68A variant, Y2H fusion (protein, UniProt P25631 1-222)", "chain": "B4 chain with A47Y, D68A"}, "B7": {"name": "Acl1 D34A variant, Y2H fusion (protein, UniProt P25631 1-222)", "chain": "B4 chain with D34A, A47Y"}, "B8": {"name": "Acl1 D70A variant, Y2H fusion (protein, UniProt P25631 1-222)", "chain": "B4 chain with A47Y, D70A"}, "B9": {"name": "Kap119.289C, Y2H prey (domain or fragment, UniProt P46970 289-1048)", "chain": "ASTSLTRKFQYDEFKQMYCEEFLTQFLQVVFDQIEKWGTGQLWLSDECLYYILNFVEQCVVQKTTWKLVGPHYNVILQHVIFPLLKPTAETLEAFDNDPQEYINRNMDFWDVGYSPDLAALALLTTCVTKRGKTTLQPTLEFMVSTLQSAVGDYNNIMLDNALQIESCLRIFSSIIDRLITKDSPFASEMEKFILTYVLPFFKSQYGFLQSRVCDICSKLGSMDFKDPVITSTIYEGVMNCLNNSSNSLPVELTAALALQTFISDDQFNMKLSEHVVPTMQKLLSLSNDFESDVISGVMQDFVEQFAEQLQPFGVELMNTLVQQFLKLAIDLHETSNLDPDSFTNVDSIPDESDKQMAALGILSTTISILLSFENSPEILKNLEQSFYPAAEFILKNDIEDFYRECCEFVENSTFLLRDITPISWKILELIGECNRKPDSMVSYYLSDFMLALNNILIYGRNELKKNEFYTKIIFEIYQKAVTAEDNSLDDLRVVFDLSQELVLALDDSLPQQYRERLLADVVGSILTQKNELKTNVVFSVTAFNVVISNMITEPLITLQYLKQQGCLEIFFQTWITDYIPNYKRCYDIKLSVLALLKIILKLESNDYSVLNLENLVPQLGSIVTQLASRLPTALRQLANQRKEFSSSGFEEDTKWDENFLDVGDDDENDDEGDLTEKYLELIKNRADSLDFVDGYDAKETFDDLEEDPLTGSILDTVDVYKVFKESIANLQHVDSNRYQGILRHLTPADQELFMGIMNA"}, "B10": {"name": "Kap119, full length, Y2H prey (protein, UniProt P46970 1-1048)", "chain": "MDITELLQCFACTLDHNAAVRTNAETHLKNASKVPGFLGACLDIIAADEVPENIKLSASLYFKNKITYGWSAGARQGSNELLDSHVDPDEKPVVKDMLIKTMVSVSKTSPRCIRVLKSALTVIISEDYPSKKWGNLLPNSLELLANEDITVTYVGLLCLAEIFRTYRWKNNDERQDLEELILNYFPALLNYGANVLFQDGKYMNNEQIGELVKLIIKIYKFVSYHDLPFTLQRSESFTPWACFFVSIIQQPLPQEVLAISDIEVRSKNPWVKCKKWALANLYRLFQRYASTSLTRKFQYDEFKQMYCEEFLTQFLQVVFDQIEKWGTGQLWLSDECLYYILNFVEQCVVQKTTWKLVGPHYNVILQHVIFPLLKPTAETLEAFDNDPQEYINRNMDFWDVGYSPDLAALALLTTCVTKRGKTTLQPTLEFMVSTLQSAVGDYNNIMLDNALQIESCLRIFSSIIDRLITKDSPFASEMEKFILTYVLPFFKSQYGFLQSRVCDICSKLGSMDFKDPVITSTIYEGVMNCLNNSSNSLPVELTAALALQTFISDDQFNMKLSEHVVPTMQKLLSLSNDFESDVISGVMQDFVEQFAEQLQPFGVELMNTLVQQFLKLAIDLHETSNLDPDSFTNVDSIPDESDKQMAALGILSTTISILLSFENSPEILKNLEQSFYPAAEFILKNDIEDFYRECCEFVENSTFLLRDITPISWKILELIGECNRKPDSMVSYYLSDFMLALNNILIYGRNELKKNEFYTKIIFEIYQKAVTAEDNSLDDLRVVFDLSQELVLALDDSLPQQYRERLLADVVGSILTQKNELKTNVVFSVTAFNVVISNMITEPLITLQYLKQQGCLEIFFQTWITDYIPNYKRCYDIKLSVLALLKIILKLESNDYSVLNLENLVPQLGSIVTQLASRLPTALRQLANQRKEFSSSGFEEDTKWDENFLDVGDDDENDDEGDLTEKYLELIKNRADSLDFVDGYDAKETFDDLEEDPLTGSILDTVDVYKVFKESIANLQHVDSNRYQGILRHLTPADQELFMGIMNA"}, "B11": {"name": "Bcl1.323C, Y2H fusion (domain or fragment, UniProt P53962 323-389)", "chain": "KQGPLDIPENFWDYSKKMNVLGDDDREGSINLDEPLIIQKESVSTRPRKEKHKKAKKHSMKSRFKPY"}, "B12": {"name": "Kap119.328C, Y2H prey (domain or fragment, UniProt P46970 328-1048)", "chain": "GQLWLSDECLYYILNFVEQCVVQKTTWKLVGPHYNVILQHVIFPLLKPTAETLEAFDNDPQEYINRNMDFWDVGYSPDLAALALLTTCVTKRGKTTLQPTLEFMVSTLQSAVGDYNNIMLDNALQIESCLRIFSSIIDRLITKDSPFASEMEKFILTYVLPFFKSQYGFLQSRVCDICSKLGSMDFKDPVITSTIYEGVMNCLNNSSNSLPVELTAALALQTFISDDQFNMKLSEHVVPTMQKLLSLSNDFESDVISGVMQDFVEQFAEQLQPFGVELMNTLVQQFLKLAIDLHETSNLDPDSFTNVDSIPDESDKQMAALGILSTTISILLSFENSPEILKNLEQSFYPAAEFILKNDIEDFYRECCEFVENSTFLLRDITPISWKILELIGECNRKPDSMVSYYLSDFMLALNNILIYGRNELKKNEFYTKIIFEIYQKAVTAEDNSLDDLRVVFDLSQELVLALDDSLPQQYRERLLADVVGSILTQKNELKTNVVFSVTAFNVVISNMITEPLITLQYLKQQGCLEIFFQTWITDYIPNYKRCYDIKLSVLALLKIILKLESNDYSVLNLENLVPQLGSIVTQLASRLPTALRQLANQRKEFSSSGFEEDTKWDENFLDVGDDDENDDEGDLTEKYLELIKNRADSLDFVDGYDAKETFDDLEEDPLTGSILDTVDVYKVFKESIANLQHVDSNRYQGILRHLTPADQELFMGIMNA"}, "B13": {"name": "Kap121, full length, Y2H prey (protein, UniProt P32337 1-1089)", "chain": "MSALPEEVNRTLLQIVQAFASPDNQIRSVAEKALSEEWITENNIEYLLTFLAEQAAFSQDTTVAALSAVLFRKLALKAPPSSKLMIMSKNITHIRKEVLAQIRSSLLKGFLSERADSIRHKLSDAIAECVQDDLPAWPELLQALIESLKSGNPNFRESSFRILTTVPYLITAVDINSILPIFQSGFTDASDNVKIAAVTAFVGYFKQLPKSEWSKLGILLPSLLNSLPRFLDDGKDDALASVFESLIELVELAPKLFKDMFDQIIQFTDMVIKNKDLEPPARTTALELLTVFSENAPQMCKSNQNYGQTLVMVTLIMMTEVSIDDDDAAEWIESDDTDDEEEVTYDHARQALDRVALKLGGEYLAAPLFQYLQQMITSTEWRERFAAMMALSSAAEGCADVLIGEIPKILDMVIPLINDPHPRVQYGCCNVLGQISTDFSPFIQRTAHDRILPALISKLTSECTSRVQTHAAAALVNFSEFASKDILEPYLDSLLTNLLVLLQSNKLYVQEQALTTIAFIAEAAKNKFIKYYDTLMPLLLNVLKVNNKDNSVLKGKCMECATLIGFAVGKEKFHEHSQELISILVALQNSDIDEDDALRSYLEQSWSRICRILGDDFVPLLPIVIPPLLITAKATQDVGLIEEEEAANFQQYPDWDVVQVQGKHIAIHTSVLDDKVSAMELLQSYATLLRGQFAVYVKEVMEEIALPSLDFYLHDGVRAAGATLIPILLSCLLAATGTQNEELVLLWHKASSKLIGGLMSEPMPEITQVYHNSLVNGIKVMGDNCLSEDQLAAFTKGVSANLTDTYERMQDRHGDGDEYNENIDEEEDFTDEDLLDEINKSIAAVLKTTNGHYLKNLENIWPMINTFLLDNEPILVIFALVVIGDLIQYGGEQTASMKNAFIPKVTECLISPDARIRQAASYIIGVCAQYAPSTYADVCIPTLDTLVQIVDFPGSKLEENRSSTENASAAIAKILYAYNSNIPNVDTYTANWFKTLPTITDKEAASFNYQFLSQLIENNSPIVCAQSNISAVVDSVIQALNERSLTEREGQTVISSVKKLLGFLPSSDAMAIFNRYPADIMEKVHKWFA"}}, "assay_in_all_cases": "two-hybrid; Y2H in reporter strain PJ69-4A; G4BD bait and G4AD prey from monocopy plasmids (ADH1 promoter); growth on SC-HLT (HIS3) and SC-ALT (ADE2) plates, 3 days at 30°C", "key": {"[1]": {"target": "Rpl1b, full length, Y2H fusion (S. cerevisiae) (UniProt P0CX44)"}, "[2]": {"target": "Tif6, full length, Y2H fusion (S. cerevisiae) (UniProt Q12522)"}, "[3]": {"target": "T1, Bcl1, full length, Y2H fusion (S. cerevisiae) (UniProt P53962)", "T1 sequence": "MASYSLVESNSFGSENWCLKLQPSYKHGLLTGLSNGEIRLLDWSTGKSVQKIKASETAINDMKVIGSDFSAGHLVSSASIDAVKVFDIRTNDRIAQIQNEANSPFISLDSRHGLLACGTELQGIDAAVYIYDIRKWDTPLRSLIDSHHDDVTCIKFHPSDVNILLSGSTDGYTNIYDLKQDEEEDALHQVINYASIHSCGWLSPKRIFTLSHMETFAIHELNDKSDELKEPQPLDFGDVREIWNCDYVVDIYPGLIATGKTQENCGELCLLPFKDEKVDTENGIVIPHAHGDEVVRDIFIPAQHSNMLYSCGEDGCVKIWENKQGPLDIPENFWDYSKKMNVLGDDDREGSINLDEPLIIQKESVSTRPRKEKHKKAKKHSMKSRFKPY"}, "[4]": {"target": "Rpl30, Y2H bait (S. cerevisiae) (UniProt P14120)"}, "[5]": {"target": "Gsp1.Q71L, Y2H bait (S. cerevisiae) (UniProt P32835)"}}, "note": "Positions count from the first letter of the chain named. Names may count otherwise. Results are given in words; binding and its absence hold for the method and conditions named. Some results given as binding are weak or reduced against the parent protein; the word gives no strength. For some of these results: Sequences can lack the tags named with a protein."}
{"binder": "B1", "values": [{"measurement": "binding", "setting": "[1]", "value": "binds"}]}
{"binder": "B2", "values": [{"measurement": "binding", "setting": "[2]", "value": "binds"}]}
{"binder": "B3", "values": [{"measurement": "binding", "setting": "[2]", "value": "binds"}]}
{"binder": "B4", "values": [{"measurement": "binding", "setting": "[3]", "value": "no binding"}]}
{"binder": "B5", "values": [{"measurement": "binding", "setting": "[3]", "value": "no binding"}]}
{"binder": "B6", "values": [{"measurement": "binding", "setting": "[3]", "value": "no binding"}]}
{"binder": "B7", "values": [{"measurement": "binding", "setting": "[3]", "value": "no binding"}]}
{"binder": "B8", "values": [{"measurement": "binding", "setting": "[3]", "value": "no binding"}]}
{"binder": "B9", "values": [{"measurement": "binding", "setting": "[4]", "value": "binds"}]}
{"binder": "B10", "values": [{"measurement": "binding", "setting": "[5]", "value": "binds weakly"}]}
{"binder": "B11", "values": [{"measurement": "binding", "setting": "[1]", "value": "no binding"}]}
{"binder": "B12", "values": [{"measurement": "binding", "setting": "[4]", "value": "binds"}]}
{"binder": "B13", "values": [{"measurement": "binding", "setting": "[5]", "value": "binds"}]}
